According to article PMC4336329 (PLoS ONE, 2015):
Screen size: about 310,000 compounds; about 2,200 (0.71%) showed an effect of 50% or more. The effect is printed as a negative number. The list shows a part of the results.

These compounds were tested against human ether-à-go-go-related gene (hERG) potassium channel (human, UniProt Q12809) (assay: primary screen, population patch clamp on CHO cells stably expressing hERG).
Chain of human ether-à-go-go-related gene (hERG) potassium channel (Q12809 whole entry, looked up): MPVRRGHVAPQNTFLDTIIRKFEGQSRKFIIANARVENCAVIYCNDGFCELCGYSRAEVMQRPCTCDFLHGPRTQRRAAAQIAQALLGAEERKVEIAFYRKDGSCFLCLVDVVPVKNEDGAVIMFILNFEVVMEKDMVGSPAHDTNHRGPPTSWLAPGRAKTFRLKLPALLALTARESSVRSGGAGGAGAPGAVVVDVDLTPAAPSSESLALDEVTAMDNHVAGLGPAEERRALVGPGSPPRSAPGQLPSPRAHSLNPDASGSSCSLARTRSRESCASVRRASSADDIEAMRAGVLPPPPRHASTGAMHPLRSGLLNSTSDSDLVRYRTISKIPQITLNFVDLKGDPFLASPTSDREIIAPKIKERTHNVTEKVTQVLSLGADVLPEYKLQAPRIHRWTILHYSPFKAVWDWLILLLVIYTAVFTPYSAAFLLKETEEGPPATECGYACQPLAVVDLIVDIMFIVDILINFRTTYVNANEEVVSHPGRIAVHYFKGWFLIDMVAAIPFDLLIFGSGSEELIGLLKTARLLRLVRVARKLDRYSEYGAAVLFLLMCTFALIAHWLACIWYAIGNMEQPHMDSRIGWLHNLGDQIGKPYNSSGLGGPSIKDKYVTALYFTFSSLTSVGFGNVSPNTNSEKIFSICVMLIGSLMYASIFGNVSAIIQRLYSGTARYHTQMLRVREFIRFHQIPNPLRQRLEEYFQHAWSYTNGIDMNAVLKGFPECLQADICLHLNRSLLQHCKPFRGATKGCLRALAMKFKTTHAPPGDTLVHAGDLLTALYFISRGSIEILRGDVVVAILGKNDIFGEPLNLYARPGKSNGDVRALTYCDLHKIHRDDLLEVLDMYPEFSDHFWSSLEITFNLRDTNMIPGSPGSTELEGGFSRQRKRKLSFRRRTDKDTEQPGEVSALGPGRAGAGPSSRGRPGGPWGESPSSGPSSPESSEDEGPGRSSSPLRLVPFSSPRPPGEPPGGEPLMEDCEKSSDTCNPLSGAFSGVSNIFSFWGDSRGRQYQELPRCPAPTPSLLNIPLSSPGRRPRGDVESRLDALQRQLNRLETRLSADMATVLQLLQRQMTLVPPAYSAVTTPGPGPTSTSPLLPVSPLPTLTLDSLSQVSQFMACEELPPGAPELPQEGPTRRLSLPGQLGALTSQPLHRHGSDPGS

Row | Compound | hERG current change (%, negative = inhibition) at 1uM
1 | O=C(NCC(=O)N1CCN(Cc2ccccc2)CC1)c1ccc(Cl)cc1 | -4.72%
2 | CCCCOc1ccccc1C(=O)N(Cc1ccc(C)o1)C1CCS(=O)(=O)C1 (stereo not drawn) | 3.01%
3 | CSCCC(NC(=O)c1ccc(Cl)cc1Cl)C(=O)N1CC(C)OC(C)C1 (stereo not drawn) | 1.18%
4 | Cc1ccc(Cn2ccc(C3CC3)n2)cc1 | 5.36%
5 | COc1ccc(-n2cccc2/C=C2\C(=N)N3N=C(c4ccco4)SC3=NC2=O)cc1 | 9.87%
6 | N#CCSc1nnc2c(Cl)cc(Cl)cn12 | 15.3%
7 | O=C(C[n+]1ccc(-c2nnc3n2CCC3)cc1)c1ccc(Cl)cc1.[Br-] | 4.99%
8 | CCCNC(=O)C/C(C)=N/NC(=O)COc1ccc(C)cc1Br | -8.77%
9 | CCn1ncc(Br)c1C(=O)Nc1ncc(C)s1 | 7.58%
10 | CC(C)(C)OC(=O)N1CCC2(CC1)Oc1ccc(F)cc1C(=O)C21CC(c2ccccc2)=NO1 (stereo not drawn) | 10.9%
11 | COc1ccc(-c2csc(-c3ccccc3)n2)c(OC)c1 | 9.73%
12 | Cc1nnc(SCC(=O)Nc2ccc3c4c(cccc24)CC3)n1C | 12.8%
13 | CCCCC(=O)NC(=S)Nc1ccccc1N1CCCCC1 | -4.41%
14 | CC(=O)c1ccc(Nc2c3c(c(C#N)c4nc5ccccc5n24)CCC3)cc1 | -67%
15 | CSCCC(NS(=O)(=O)c1ccc(C)cc1)C(=O)NC1CCCCCC1 (stereo not drawn) | 17.1%
16 | COc1cc(OC)c(C(=O)Nc2ccc3ccccc3c2)cc1OC | 13.9%
17 | Cc1ccc(S(=O)(=O)N2CCC(C(N)=O)CC2)cc1C(=O)NC1CCCCC1 | 16.1%
18 | CCOC(=O)N1CCN(C(=O)CCCCCn2c(=S)[nH]c3cc4c(cc3c2=O)OCO4)CC1 | 15.5%
19 | Cc1ccccc1NC(=O)CCCn1nc(C)c2c(C)n(-c3ccccc3)nc2c1=O | 8.71%
20 | Cn1c2ccccc2c2cc(C(=O)NNS(=O)(=O)c3ccc(F)cc3)sc21 | 11.3%
21 | COC(=O)N/N=C/c1cc(C)n(-c2ccc(F)cc2)c1C | 9.65%
22 | CC(=O)Nc1ccc(S(=O)(=O)N2CCC(C(=O)NC3CC3)CC2)cc1 | 15.6%
23 | O=C(CCN1C(=O)/C(=C/c2ccc(Cl)cc2)SC1=S)Nc1cccc(C(=O)O)c1 | 8.72%

Row | Compound | hERG current change (%, negative = inhibition) at 1uM
24 | CC(C)[C@H](NC(=O)c1cccc(CN(Cc2ccccc2)C(=O)c2ccccc2)c1)C(=O)O | 11.1%
25 | Cc1ccc(OCCNC(=O)c2cncc(Br)c2)cc1C | 9.65%
26 | COc1cc(C2CC(=O)Nc3n[nH]c(-c4ccccc4)c32)cc(OC)c1OC (stereo not drawn) | 8.7%
27 | CCOc1ccc(N2C(=O)/C(=C/c3ccc(C)o3)N(C)C2=S)cc1 | 12.1%
28 | CCOC(=O)N1CCN(C(=O)Cc2ccccc2[N+](=O)[O-])CC1 | 10.7%
29 | CCc1ccccc1NC(=O)Nc1c(C)n(C)n(-c2ccccc2)c1=O | -14.2%
30 | Cc1ccc(NS(=O)(=O)c2ccc(NC(=O)c3ccccc3C(=O)O)cc2)cc1C | 5.97%
31 | COc1cc(CN2CCN(Cc3cn(C)c4ccccc34)CC2CCO)cc(OC)c1 (stereo not drawn) | -4.71%
32 | CCOC(=O)CNC(=O)c1c(C)nn(C)c1Cl | -0.599%
33 | CSc1nsc(SCC(=O)NCc2ccccc2)n1 | 13.1%
34 | Cc1ccc(Cn2nnc3c(=O)n(CC(=O)N4CCN(c5ccccc5)CC4)cnc32)cc1 | 10.6%
35 | Cc1ccc2[nH]c3c(c2c1)CC/C(=C/c1ccccc1)C3=O | 9.35%
36 | COc1cccc(OC)c1OCCCCN1CCCC1 | 4.67%
37 | COc1ccc(S(=O)(=O)N2CCSC2C)cc1C (stereo not drawn) | 12%
38 | COc1ccc(OCCC(=O)OCC(=O)NC2CCCCCCC2)cc1 | 1.17%
39 | Nn1cc(-c2ccccc2)nc1SCC(=O)Nc1cccc(S(N)(=O)=O)c1 | 12.6%
40 | O=C(CSc1cccc2cccnc12)Nc1cccc(S(=O)(=O)N2CCOCC2)c1 | 9.24%
41 | c1ccc(-c2nn3c(C4CCCCC4)nnc3s2)cc1 | 0.449%
42 | COc1ccc2c(c1)-c1c(sn(-c3ccccc3)c1=S)C(C)(C)N2 | 7.19%
43 | Nc1nc2ccccc2cc1S(=O)(=O)c1ccccc1 | 14.1%
44 | O=C(NOCc1ccccc1)c1ccc(Cl)cc1 | -0.363%
45 | Cc1cc(C)c2c(n1)sc1c(N3CCN(CCO)CC3)ncnc12 | 14.9%
46 | Cc1ccc(-c2cc(-c3ccco3)c(C#N)c(=O)[nH]2)cc1 | 13.1%

Row | Compound | hERG current change (%, negative = inhibition) at 1uM
47 | Cc1ccc(NC(=O)COC(=O)c2nn(C)cc2Cl)cc1 | -3.33%
48 | Cn1cc([N+](=O)[O-])c(C(=O)Nc2cc(Oc3ccccc3)cc([N+](=O)[O-])c2)n1 | 4.95%
49 | COC(=O)C1CC(O)CN1C(=O)Nc1ccccc1 (stereo not drawn) | 7.28%
50 | Cn1c(CC(=O)Nc2ccccc2Cl)nnc1SCC(=O)NC1CCCCC1 | 17.6%
51 | Cl.OC(c1ccc(Cl)cc1)C(CN1CCOCC1)c1ccccc1 (stereo not drawn) | 8.75%
52 | COc1ccc(NC(=O)CNCCC2=CCCCC2)cc1 | 14.6%
53 | Cc1c(C)n(C(=O)CN2CCN(c3ccccn3)CC2)c2ccccc12 | 4.72%
54 | Cc1ccc(NC(=O)C2CCCN2S(=O)(=O)c2cccc3cccnc23)c(C)c1 (stereo not drawn) | 14.1%
55 | Brc1ccc(C[n+]2ccccc2)cc1.[Br-] | 3.75%
56 | CCCCOc1ccccc1C1C(C(N)=O)=C(C)Nc2nnnn21 (stereo not drawn) | 20.1%
57 | CN1C(=O)N(C)C2C1NC(=O)N2C (stereo not drawn) | 0.927%
58 | COc1ccc(OC)c(N(CC(=O)Nc2ccccc2C(=O)NCc2ccco2)S(C)(=O)=O)c1 | 7.06%
59 | Cc1cc(C)nc(N2CCCC(C(=O)NCc3cccs3)C2)n1 (stereo not drawn) | 10.4%
60 | Cc1ccc(C2=NS(=O)(=O)N(C)C(C(=O)NCc3ccc(F)cc3)=C2)cc1 | -15.9%
61 | CCOc1cc(Br)cc(C(c2c(C(=O)O)[nH]c3ccccc23)c2c(C(=O)O)[nH]c3ccccc23)c1O | 13.5%
62 | O=C(COc1cccc(Br)c1)N/N=C1\CCCc2ccccc21 | 10.5%
63 | O=[N+]([O-])c1ccccc1Oc1ccccc1Cl | 6.14%
64 | O=C1C(Cc2cccc([N+](=O)[O-])c2)SC(=Nc2ccccc2)N1c1ccccc1 (stereo not drawn) | 14.5%
65 | CCOc1ccc(N/C=C/C(=O)c2ccc3ccccc3c2)c([N+](=O)[O-])c1 | 1.46%
66 | CNC(C)C(=O)NC(C(=O)N1CCCC1C(=O)Nc1ccc2ncccc2c1)C(C)C.O=CO (stereo not drawn) | 10.1%
67 | NC(=O)COC(=O)/C=C/c1ccccc1[N+](=O)[O-] | 6.93%
68 | O=C(COc1ccccc1O)N1CCN(C(=O)c2ccco2)CC1 | -3.21%
69 | Cc1ccc(Nc2ncc(C(=O)NCCCN3CCN(C)CC3)c3ccccc23)cc1Cl | -7.58%

Row | Compound | hERG current change (%, negative = inhibition) at 1uM
70 | Cc1cc(C(=O)COC(=O)C2=NNC(=O)CC2)c(C)n1-c1ccc(OC(F)F)cc1 | -6.14%
71 | COc1ccc(NS(=O)(=O)c2ccc3ccccc3c2)c2ncccc12 | 11.9%
72 | CNC(=S)Nc1ccc2[nH]c(=O)[nH]c2c1 | 17.9%
73 | C/C(N)=C(/C#N)C(=O)COC(=O)c1cccc2ccccc12 | 1.84%
74 | CC(C)Nc1nc(C#N)nc(NC(C)C)n1 | 19.8%
75 | COc1ccc(NC(=O)Nc2nnc(Cc3ccc(F)cc3)s2)cc1 | 17%
76 | CCn1nnnc1-c1ccc(OC)c(S(=O)(=O)NCCc2ccccc2)c1 | 6.8%
77 | Cc1ccc(S(=O)(=O)NCCSc2ccccc2)cc1[N+](=O)[O-] | 7.44%
78 | CCC(=O)N1CCc2cc(S(=O)(=O)CCC(=O)Nc3nc(C)cs3)ccc21 | 7.89%
79 | Cc1cc(F)c(F)c(C(=O)N2C(C)CCCC2C)c1Cl (stereo not drawn) | 6.46%
80 | CCCCC(=O)Nc1cc(N(C)C)nc2ccccc12 | -30.7%
81 | CCOC(=O)c1c(C)n(C)c2c1cc(OC(C)=O)c1ccccc12 | 13.8%
82 | Clc1ccccc1CSc1nc2ccncc2[nH]1 | 6.59%
83 | COc1ccccc1C1=NOC(COC(=O)c2ccc([N+](=O)[O-])cc2)C1 (stereo not drawn) | 3.07%
84 | Cc1ccc(CNC(=O)CCC2CCCN(C(=O)CCC(F)(F)F)C2)o1 (stereo not drawn) | 11%
85 | COc1cccc(NC(=O)C2Cc3ccccc3CN2C(=O)c2ccco2)c1 (stereo not drawn) | 6.42%
86 | C[C@@H]1C=CC(=O)O[C@@H]1c1ccc(Cl)cc1 | 9.25%
87 | CCOC(=O)c1ccc(S(=O)(=O)NCC(C)(C)N2CCOCC2)cc1.Cl | 6.6%
88 | O=C(CCCN1C(=O)CCC1=O)Nc1ccc(Br)cc1F | -2.6%
89 | NC(=S)NNC(=O)Nc1cccc(Cl)c1 | 14.2%
90 | COc1ccc(C(C)(C)NC(=O)C2CCC(=O)N(C3CC3)C2)cc1OC (stereo not drawn) | 15.6%
